# The list shows a part of the results.
# Tested on: PfAP2-HC AP2 domain (GST-tagged)
# Experiment: gcPBM binding intensity (ln(normalized median fluorescence intensity)); higher = stronger DNA binding
# Procedure, shortened: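 Using an Agilent 4 × 180k array, primer-extended double-stranded 36-bp intergenic genomic probes and negative controls were exposed for 1 h to GST-fused P. falciparum DNA-binding domains expressed in E. coli. Binding was carried out in 1× PBS with 1% milk, 0.2 mg/ml BSA, 0.5% salmon testes DNA and 0.03% Triton X-100, and protein was detected with Alexa488 anti-GST antibody and a 488 nm scan. Binding intensity is the highest Masliner-normalised natural-log median intensity across replicate spots of either probe orientation.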
row,Sequence,gcPBM binding intensity (ln)
1,TTATTCTAAAAGTGTTTGCACTTTTATAATCATATA [GTGCAC_site9929],9.53
2,TATACAGATAAATACACACACACATATATATATATA [CACACA_site4845],11.2
3,AATAATAATTTGAATACACACAATAATATATATATA [CACACA_site2059],9.84
4,ATACAAAAAATCACATGTACATATTCTTAAATGGTA [XGTACX_site8502],9.65
5,CACAAATATACAAATACACACAAATATACTCATATA [CACACA_site5339],10
6,TGTATTCCTTTTTATAGTACAATTTAAAAGTATAAA [XGTACX_site2045],9.32
7,GTACGTTTCTCCAGACTGCACTATACGACTCGTACA [GTGCAC_site9771],9.6
8,AGAAAGATGCAAGAAACATGCAAAAAAAAAATTTCT [TGCATGCA_site725],9.48
9,AGCCACGGGTTATATACACACATAATCAAATAAAAT [CACACA_site6117],10.1
10,TATGTAATAAAATATACACACAATATACTTATATAT [CACACA_site3682],9.78
11,ATTTTTAATGGATAAGTGCATAATATTATGATGCAA,9.74
12,AAAAAATTATATAATAATAGAACTATACATTTTATT [GTGCAC_negctrl_site645],9.55
13,ACATAATATATATATTGTACAAATATATTATTGTTA [XGTACX_site3385],9.55
14,AGCTATATAAATAATACATGCATTGTTCAGGTATTT [TGCATGCA_site964],9.65
15,ATTTATAATATTCAAGTGCATATATATTTTTTACTT,9.71
16,TAAAGAAATTCTTCATGTACTTATTATTTCTCTTTT [XGTACX_site6817],9.59
17,GTTATACAAAATAATACATGCATGTCCTACATATAT [TGCATGCA_site320],10.3
18,TATGGAATAAATTTATCCATACATCTTATAACATAT [XGTACX_negctrl_site500],9.63
19,TACATAAATTAATAGTCACACACGTATTTTTTATAT [CACACA_site8806],9.87
20,TAGTTCCTCAAAAATTTCCTTTGTCATTTTATTCAC [GTGCAC_negctrl_site20],9.57
21,ATTTTTTTATTTTGAAGTACATAAACTTTATATATA [XGTACX_site1746],9.58
22,ATTACATATGTCGCTTGTACGCATAATTTTTTTATA [XGTACX_site5782],9.82
23,ATTTAAAAAAAAAGACGTACATTTATATAGAATCCT [XGTACX_site6457],9.59

row,Sequence,gcPBM binding intensity (ln)
1,TTTATATTTAAAGAAACATGCATTTATCATATATAC [TGCATGCA_site173],9.59
2,TACACGCATAAACACACACACACACCCATATATATA [CACACA_site8114],11.3
3,CAATTTATAAAGAAAACACACATATACCTATATACA [CACACA_site6710],9.85
4,TCTATAATATTTTTCACACACCATTTCCTTAAACAC [CACACA_site6747],9.91
5,AAAAAAATAAAATACAAAATGGCTATACAAAATAAA [GTGCAC_negctrl_site535],9.82
6,TTTGTTGACGAACACACACACATACATATTTATATA [CACACA_site7141],10.7
7,TTTTCCTTTCACAATGGTACACAAATATACATGCAA [XGTACX_site7244],9.56
8,ATTTTTTTTCGTAATTGTTCTTAATGTTGAATTATA [CACACA_negctrl_site1135],9.68
9,TAGTAATATGTATCCATACACACATACATTTTATTT [CACACA_site873],9.94
10,AAAAAATATACATATTGTACATTTTTTATTAACACA [XGTACX_site6415],9.53
11,ATAAATTTACATTTTTTTTTTTTTTTTTTTTTTTTT [GTGCAC_negctrl_site689],9.31
12,GTATAGTACAAATAAGTGCATATAAAAGAAATACAG,9.87
13,TAATTTTTATTCAGTTCACACACGCTTTAATATTAT [CACACA_site9147],9.94
14,ATTACCAAAAAAAGGTGTACAAATATAATTATGAAA [XGTACX_site44],9.73
15,GGAATAACCGGACACACACACACATATATATATATA [CACACA_site5874],10.4
16,ATTTAAAATAGAAGTTATATTTATATGGGTGAAAAA [GTGCAC_negctrl_site296],9.5
17,TTATAAATAAAAAGAGTGCAATTATAAATATATATA,9.66
18,AAAAAAATACAAATATGTACACATATATATTTAAAA [XGTACX_site4729],9.76
19,AAATAAAATATGAACAGTACTTTTGATATAACCATT [XGTACX_site1873],9.76
20,TTATTCATACAATATCGTACATATATATATATATAT [XGTACX_site1185],9.87
21,TCTAATCTGGAGAAAAGTACATAGTATCTGGTAACA [XGTACX_site2540],9.45
22,ATTATATATATATATACACACACATATATATATATA [CACACA_site8373],9.87
23,GTACACCTATAATATACACACAACAAATATGCACAT [CACACA_site6603],10.1

row,Sequence,gcPBM binding intensity (ln)
1,ATCTTATATATATGTGTGCACGTATATATAAGCAAT [GTGCAC_site9933],9.8
2,GTATGTATGTATGTATGTACTTATTTATTTATTTAT [XGTACX_site1921],9.91
3,TAAAAGTATTCCTTTTGTACATATAATGAAAACAAT [XGTACX_site2069],9.51
4,CTGTTTTTACTAAGTTGTACAAATGATGATACCCTA [XGTACX_site630],9.37
5,ATACAATAATATAAATGTACAAATTATATCTTAATT [XGTACX_site6004],9.62
6,CTATATTTTTAAAAATGTACTTTATAATAAAATACT [XGTACX_site3593],9.53
7,TAAATTTAAAATGACACACACTAAAATTATTTAAGT [CACACA_site4816],10.2
8,ACCTTTAATATATACACACACATAAAAAAAATATAT [CACACA_site1843],10.6
9,AAATATTCATAGTATACACACATTTATTTATAACCA [CACACA_site6502],9.73
10,AATGATAAAAATAAATGTACAGAATGATATTTTTTT [XGTACX_site5976],9.73
11,ATTAATAAATAAATGACACACACACCCACAAAAAAA [CACACA_site8839],11.3
12,AAAAAATTGTTTCCCTGTACTCAAAAAAAAAAAAAA [XGTACX_site8070],9.21
13,AAAAAAGAAAAGAAATGTACAGAGCTTATCTTTTTA [XGTACX_site5677],9.6
14,TTCAATTTTACATGTAGTACATAAATTATACACAAA [XGTACX_site4946],9.43
15,TTATTCCTATTTGGATGTACATTTTAATATAAACAT [XGTACX_site4386],9.67
16,TTTTTTAATTTTACATGTACATACAGGTTTTTTTTT [XGTACX_site4539],9.72
17,TAAAATTTACGGTCTTGTTGCGCAACCAACATTGTC [CACACA_negctrl_site1175],9.79
18,TAATAATAGTAAATATGTACATATATATATATATAG [XGTACX_site4602],9.97
19,GTTTTTTTTTTTTTGGTGCGTCATTTTCAAAAGAAG [GTGCAC_site9745],9.56
20,TTTATAAAATATCTTTCACACATTACTATGTATTAT [CACACA_site5148],9.81
21,ATAAAAGTTTAATATTGTACGAACATGCGTTTCTAA [XGTACX_site1487],9.45
22,AAAAAAAAATAAAAAAGTACAGGTAAATATATATAT [XGTACX_site5812],9.78
23,GAATAAATAAAAATATGTACATAAATATATATATAT [XGTACX_site8858],10.1

row,Sequence,gcPBM binding intensity (ln)
1,AAAAAAAAAAAATATATATATATATATATAATATTT [GTGCAC_negctrl_site678],9.44
2,AAGACAAATATGTATTGTACGAACGCTTTTTAATTA [XGTACX_site1961],9.64
3,ATACTTTAAAATAATACACACATGGAAAATAAAATT [CACACA_site697],9.94
4,AAAAAAAAAAAAAAAACACACAATTGAATTATTAAG [CACACA_site2864],9.73
5,TTTTATTATTAAACATGTACCCATATTATTGTTATG [XGTACX_site5563],9.64
6,TTCTTAAAAAATCAAACACACATATATATATACATA [CACACA_site2296],9.69
7,ATAAATAGAATAAAATGTACATGTAATACATATATA [XGTACX_site5475],9.85
8,GTTTAGATAAAAGGGCGTACATCTATTTTTGACTAA [XGTACX_site7170],9.47
9,AAAACAAAAAAATTTTGTACGAAACAATACTGTAAG [XGTACX_site7992],9.67
10,TATATATATTGTTATTGTACACAAATATAGGAAATA [XGTACX_site7110],9.62
11,AAATTTGGTGAAGGATGTACTTTACCTAATACTTGT [XGTACX_site4825],9.56
12,AGAATTATATCATGGTGTACTTATTTGTTTATTTCT [XGTACX_site5795],9.81
13,ATAAATTAAACAAACACACACGTTCTTTTATTTACT [CACACA_site4556],9.95
14,AAAAAAATATATTCCTAATTTATGATTAAAAGGAAT [CACACA_negctrl_site751],9.47
15,TTTTTTTTTGGGTGTACACATGAATATATATTTTTT [CACACA_site5254],9.66
16,AAAAAAAAAAAAAATTGTACGGATTCTTTTTTTTTT [XGTACX_site2898],9.38
17,ATATTTTTTTTTTTCACACACATTTAGATTGTATTA [CACACA_site3137],10.2
18,TTGTATAAAAAACTAAAAAATATAAAATAATAAGTG [CACACA_negctrl_site1704],9.68
19,AACATTATCAAATAAACCATAAATCAATTCAATATG [CACACA_negctrl_site696],9.68
20,AAACGTTTATTTTATTGTACATATGAAAAATGCTTC [XGTACX_site6896],9.66
